Laboratory results published in PubChem BioAssay AID902 (National Center for Advancing Translational Sciences (NCATS), 2007).
In all, about 130,000 compounds went through this assay and about 1,900 (1.5%) were called active. Inconclusive means that the source gave no clear call. Such entries were picked first, then a sample of the others. Calls follow the shape of the dose curve; as a rule, active = well fitted cell-killing curve with a large enough effect; inconclusive = small, poorly fitted or top-dose-only effect; inactive = no such curve, though single readings can be large or run the other way. A potency beside an inconclusive call is a rough fit, not a confirmed value. More than one record can exist for a structure, and the calls need not agree.

assay: qHTS Screen for Compounds that Selectively Target Cancer Cells with p53 Mutations: Cytotoxicity of p53ts Cells at the Nonpermissive Temperature; conditions: H1299-p53A138V viability at 39C, ATP luminescence, 24 h; activity change, negative = cell killing: at 46.1 µM (top of the series); also: nearly all actives have a fitted effect of over 55% in size
% is scaled to controls: 0 for no effect and ±100 for the full control effect; potency is read from the fitted curve at half-maximal effect; tags tell the direction and shape of the fitted curve.

| Structure (SMILES) | Potency | activity change, negative = cell killing |
| --- | --- | --- |
| Nc1nc(=S)c2ncn([C@H]3O[C@@H](CO)[C@@H](O)[C@@H]3O)c2[nH]1 | inconclusive: 5.01 µM [cytotoxic, partial curve] |  |
| CCOc1ccc(Br)cc1C1C(C(=O)Nc2ccccc2OC)=C(C)Nc2nnnn21 (stereo unspecified) | inconclusive: 15.8 µM [cytotoxic, single point] |  |
| CCc1ccc2oc(-c3cccc(NC(=O)c4ccc(-c5cccc([N+](=O)[O-])c5)o4)c3)nc2c1 | inconclusive: 7.94 µM [cytotoxic, partial curve] |  |
| CCCCN(CCCC)S(=O)(=O)c1ccc(NC(=O)c2c(-c3ccccc3)noc2C)cc1 |  | inactive: 21.7% |
| Cc1ccc(NC(=O)Cn2ccn(Cc3ccc(Cl)cc3)c(=O)c2=O)cc1C |  | inconclusive: -33.4% [cytotoxic] |
| CCOC(=O)C1CCN(C(=O)c2ccc3c(c2)sc2nc(-c4ccc(OCC)cc4)cn23)CC1 | inconclusive: 0.447 µM [cytotoxic, full curve, poor fit] |  |
| Cn1c(NCc2ccccc2F)nc2ccccc21 | inconclusive: 10 µM [cytotoxic, partial curve] |  |
| COc1ccc(-c2cc(C(=O)Oc3ccc(Cl)cc3)c3ccccc3n2)cc1 | inconclusive: 5.01 µM [cytotoxic, partial curve] |  |
| CSc1ccc(NC(=O)Nc2cc(C)ccn2)cc1 | inconclusive: 3.98 µM [cytotoxic, single point] |  |
| CCOC(=O)c1ccc(N2C(=O)c3n[nH]c(-c4ccco4)c3C2c2cccc(F)c2)cc1 (stereo unspecified) | inconclusive: 12.6 µM [cytotoxic, single point] |  |
| O=C(O)CNC(=O)[C@H]1NC(C(F)(F)F)(C(F)(F)F)OC1(C(F)(F)F)C(F)(F)F |  | inactive: 1.2% [at 9.22 µM] |
| CCc1ccccc1NC(=O)N1CC(CC)Oc2ccc(Cl)cc21 (stereo unspecified) | inconclusive: 5.01 µM [cytotoxic, partial curve, poor fit] |  |
| Cc1cccc(C(=O)Nc2nc3c(s2)CCCC3)c1 | active: 12.6 µM |  |
| COc1ccc(-c2nc(CCNC(=O)Cc3ccc(F)cc3)cs2)cc1 | inconclusive: 15.8 µM [cytotoxic, partial curve, poor fit] |  |
| COc1ccc(NC(=O)CSc2nc3ccccc3n2CC(=O)NCc2ccc(F)cc2)cc1 | inconclusive: 31.6 µM [cytotoxic, single point] |  |
| COc1ccc2sc(NC(=O)CC(C)C)nc2c1 | inconclusive: 12.6 µM [cytotoxic, partial curve] |  |
| OCc1nc2ccccc2n1CCCOc1ccccc1 | inconclusive: 10 µM [cytotoxic, partial curve] |  |
| CC(C)[C@@H]1NC(=O)[C@H](CCCCN)NC(=O)[C@H](Cc2c[nH]c3ccccc23)NC(=O)[C@H](Cc2ccc(O)cc2)NC(=O)[C@H](C)N(C)C(=O)[C@H](Cc2ccccc2)NC1=O |  | inactive: 10.8% |
| Cc1cccc(NC(c2cccc(Cl)c2)c2ccc3cccnc3c2O)n1 (stereo unspecified) | active: 12.6 µM |  |
| Cc1ccc2c(CC(=O)Nc3ccc(S(=O)(=O)N4CCC(C)CC4)cc3)coc2c1 |  | inactive: 15.2% |
| O=c1c2[nH]c3ccccc3c2nc(SCc2ccccc2F)n1-c1ccc(F)cc1 | inconclusive: 12.6 µM [cytotoxic, single point] |  |

| Structure (SMILES) | Potency | activity change, negative = cell killing |
| --- | --- | --- |
| CSc1ccccc1NC(=O)c1ccoc1C | inconclusive: 31.6 µM [cytotoxic, single point] |  |
| Cc1nc2ccccc2c2oc(C(=O)N3CCc4ccccc4C3)cc12 | active: 20 µM |  |
| COc1ccccc1-c1cc(C(=O)Nc2c(C)nn(Cc3ccc(Cl)cc3)c2C)no1 | active: 12.6 µM |  |
| O=C(NCc1ccco1)c1cc2ccc(O)cc2oc1=O | inconclusive: 15.8 µM [cytotoxic, single point] |  |
| O=C(Nc1nsc(-c2ccccc2)n1)c1ccncc1 | inconclusive: 12.6 µM [cytotoxic, partial curve] |  |
| CC1Cc2nc(SCC(=O)Nc3ccc4c(c3)OCO4)n(-c3ccc(F)cc3)c(=O)c2S1 (stereo unspecified) | inconclusive: 20 µM [cytotoxic, single point] |  |
| OCCN1CCN(CCCN2c3ccccc3Sc3ccc(Cl)cc32)CC1 | active: 10 µM |  |
| COc1ccc(C(CNC(=O)COc2cc(C)c(Cl)c(C)c2)N2CCCCC2)cc1 (stereo unspecified) | inconclusive: 31.6 µM [cytotoxic, single point] |  |
| COc1ccc(NCc2nc3ccccc3n2CCOc2ccccc2C)cc1 | inconclusive: 0.398 µM [cytotoxic, full curve, poor fit] |  |
| CCOC(=O)c1[nH]c2ccccc2c1NC(=O)c1nonc1C |  | inactive: 2.32% |
| CCc1ccc(NC(=O)N2CC=C(c3c[nH]c4ccccc34)CC2)cc1 | inconclusive: 0.316 µM [cytotoxic, full curve, poor fit] |  |
| Cc1cccc(NC(=O)CSc2nnc(-c3ccccc3C)o2)c1 | inconclusive: 10 µM [cytotoxic, partial curve] |  |
| COc1ccc(Nc2cc(C(=O)NCCCN(C)Cc3ccccc3)c3ccccc3n2)cc1OC | inconclusive: 11.2 µM [cytotoxic, partial curve] |  |
| COc1cccc(CNC(=O)C(=O)NCC(c2cccs2)S(=O)(=O)c2cccs2)c1 (stereo unspecified) |  | inactive: -8.33% |
| Cc1ccccc1NC(=O)CSc1ncc2c(n1)-c1ccccc1N(C)S2(=O)=O |  | inactive: -12.5% |
| CSCCNC(=O)c1ccc(C(C)(C)C)cc1 | inconclusive: 10 µM [cytotoxic, partial curve] |  |
| COC(=O)c1cc(NC(=O)c2ccc(Cn3cc(Cl)cn3)o2)cc(C(=O)OC)c1 | inconclusive: 15.8 µM [cytotoxic, partial curve] |  |
| Cc1ccc(NC(=O)/C(C#N)=C/c2ccc(C)o2)cc1 | inconclusive: 0.631 µM [cytotoxic, full curve, poor fit] |  |
| CC(C)CCNC(=O)c1ccc2c(c1)NC(=O)C(CS(=O)(=O)Cc1cccc(Br)c1)N2 (stereo unspecified) | inconclusive: 15.8 µM [cytotoxic, single point] |  |
| COc1ccc(OCCCCn2c(C3CC(=O)N(c4cccc(Cl)c4)C3)nc3ccccc32)cc1 (stereo unspecified) | inconclusive: 2 µM [cytotoxic, partial curve] |  |
